Measured values as given in PubChem BioAssay AID1460 (National Center for Advancing Translational Sciences (NCATS), 2008).
Hit rate of the full screen: of about 270,000 compounds, about 5,800 (2.1%) were called active. Inconclusive results (about 16%) are left out. Calls follow the shape of the dose curve; as a rule, active = well fitted inhibition curve with a large enough effect; inconclusive = small, poorly fitted or top-dose-only effect; inactive = flat fitted curve, though single readings scatter. This is a selection; strong and weak results do not stand in their true shares. Some structures have more than one record in an assay (separate samples or runs), and their calls can disagree.

target: Microtubule-associated protein tau (Homo sapiens) (UniProt P10636); assay: qHTS for Inhibitors of Tau Fibril Formation, Thioflavin T Binding; settings: recombinant tau K18 P301L (four-repeat tau fragment), heparin-induced fibrillization, ThT fluorescence; series mostly up to 57.4 µM; activity, negative = inhibition: at the top concentration; also: nearly all actives have a fitted effect of over 55% in size
Excerpt: NIH Molecular Libraries Probe Production Network [MLPCN]
NIH Chemical Genomics Center [NCGC]
Assay Provider: Carlo Ballatore, University of Pennsylvania
The microtubule-associated protein tau is an abundant protein in the axons of neurons that stabilizes microtubules. With its ability to modulate microtubule dynamics, tau contributes directly or indirectly, to key structural and regulatory cellular functions. Particularly important is the influence tau exerts on axonal transport, which allows signaling molecules, trophic factors and other essential cellular constituents to travel along the axons. Under pathological conditions, tau becomes sequestered into insoluble aggregates called neurofibrillary tangles. This phenomenon is believed to have pathological consequences by promoting axonal transport deficits that ultimately lead to synaptic dysfunction and neuronal loss. To identify inhibitors of tau aggregation, a heparin-induced tau fibril formation assay was used that employed a recombinantly expressed fragment of tau, K18 (Q242-E372), bearing a P301L mutation (Gustke et al. 1994; Hong et al. 1998). This assay monitors tau fibrillization by Thioflavin T (ThT) fluorescence.
Gustke, N., B. Trinczek, et al. (1994). "Domains of tau protein and interactions with microtubules." Biochemistry 33(32): 9511-22.
Hong, M., V. Zhukareva, et al. (1998).
Li, W. and V. M. Lee (2006).
von Bergen, M., S. Barghorn, et al. (2001). "Mutations of tau protein in frontotemporal dementia promote aggregation of paired helical filaments by enhancing local beta-structure." J Biol Chem 276(51): 48165-74.
NCGC Assay Protocol Summary:
For screening, 2 uL/well human K18 P301L (15 uM unlabeled and 0.24 uM Alexa 594-labeled tau, final concentrations) in reagent buffer (100 mM sodium acetate pH 7) was dispensed into black solid 1536-well plates (Grenier) using a solenoid-based dispenser. Following transfer of 23 nL compound or DMSO vehicle by a pin tool, 2 uL/well heparin (20 uM final concentration) in reagent buffer was added and the plate centrifuged 15 s at 1000 RPM. Plates were incubated 6 hr at 37 C and then 1 uL/well ThT (30 uM final concentration) was added. After a 1 hr ambient incubation, the plates were read by an Envision (Perkin Elmer) to monitor ThT fluorescence (450/8 nm excitation and 510/23 nm emission).
Keywords: NIH Roadmap, MLPCN, MLI, MLSMR, NCGC, qHTS, tau, tauopathies, Alzheimer's disease, fibril, neurodegeneration, aggregation
% is scaled to controls: 0 for no effect and ±100 for the full control effect; potency is read from the fitted curve at half-maximal effect.

Chain of UniProt P10636 (P10636 whole entry, looked up, the tested form may be a part): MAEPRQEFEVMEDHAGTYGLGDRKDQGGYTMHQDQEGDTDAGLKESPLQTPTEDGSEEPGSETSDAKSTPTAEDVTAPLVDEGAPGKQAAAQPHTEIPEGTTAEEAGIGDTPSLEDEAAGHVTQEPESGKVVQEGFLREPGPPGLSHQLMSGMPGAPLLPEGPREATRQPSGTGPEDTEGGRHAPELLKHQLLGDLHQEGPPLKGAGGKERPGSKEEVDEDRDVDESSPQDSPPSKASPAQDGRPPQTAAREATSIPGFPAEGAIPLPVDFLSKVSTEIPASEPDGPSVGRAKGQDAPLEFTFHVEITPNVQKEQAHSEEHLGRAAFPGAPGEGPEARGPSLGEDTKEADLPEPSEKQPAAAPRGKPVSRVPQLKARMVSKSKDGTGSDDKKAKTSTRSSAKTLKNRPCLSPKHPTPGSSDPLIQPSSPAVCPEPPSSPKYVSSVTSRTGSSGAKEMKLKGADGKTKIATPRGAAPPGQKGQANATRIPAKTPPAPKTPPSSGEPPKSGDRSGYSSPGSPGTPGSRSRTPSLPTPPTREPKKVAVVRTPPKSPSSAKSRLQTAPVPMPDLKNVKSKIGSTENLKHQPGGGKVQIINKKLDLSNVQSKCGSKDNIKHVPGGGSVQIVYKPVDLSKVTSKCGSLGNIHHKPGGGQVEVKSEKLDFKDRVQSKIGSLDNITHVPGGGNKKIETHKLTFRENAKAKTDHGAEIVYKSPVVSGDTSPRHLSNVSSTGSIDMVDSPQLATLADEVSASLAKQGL

| SMILES | Potency | activity, negative = inhibition |
| --- | --- | --- |
| Cc1ccccc1N1C(=O)CC(=O)NC1=O | active: 15.8 µM |  |
| CC(=O)C1=C(O)C2C3c4c[nH]c5cccc(c45)CC3C(C)(C)N2C1=O (stereo not drawn) |  | inactive: -23% |
| COc1ccc(CCn2c(NN=C3CCCCC3)nc3c2c(=O)[nH]c(=O)n3C)cc1 | active: 28.2 µM |  |
| CN[C@@H]1C[C@@H](c2ccc(Cl)c(Cl)c2)c2ccccc21 |  | inactive: -19.7% |
| O=[N+]([O-])c1ccc(Sc2nc3ccccc3o2)c([N+](=O)[O-])c1 | active: 14.1 µM |  |
| Cc1nonc1OCCNc1ccc([N+](=O)[O-])c2cccnc12 | active: 7.08 µM |  |
| COC(=O)[C@@]1(Cc2ccc(F)cc2)[C@H]2c3cc(C(=O)N(C)C)[nH]c3C[C@H]2CN1C(=O)c1ccccc1 |  | inactive: -11.2% |
| NC1CC1c1ccccc1 (stereo not drawn) |  | inactive: -14.2% |
| c1cc2c(cc1[C@H]1OC[C@H]3[C@@H]1CO[C@@H]3c1ccc3c(c1)OCO3)OCO2 |  | inactive: -11.7% |
| CC(=O)[C@@]1(O)CC[C@H]2[C@@H]3C[C@H](C)C4=CC(=O)CC[C@]4(C)[C@H]3CC[C@@]21C |  | inactive: -20.3% |
| CN(CCc1ccc(Cl)c(Cl)c1)[C@H]1CCCC[C@H]1N1CCCC1 |  | inactive: -7.66% |
| CC(=O)[C@]1(O)CCC2C3CCC4=CC(=O)CC[C@@]4(C)C3CC[C@]21C (stereo partly drawn) |  | inactive: -16.4% |
| CC(C)CC(N(C)C)C1(c2ccc(Cl)cc2)CCC1 (stereo not drawn) |  | inactive: -0.0402% |
| CCCN(CCC)[C@@H]1CCc2ccc(O)cc2C1 | inactive |  |
| Oc1ccc2c3c1O[C@H]1c4[nH]c5ccccc5c4C[C@@]4(O)C(C2)N(CC2CC2)CCC314 (stereo partly drawn) | inactive |  |
| O=C1C=C2C=C[C@@H]3C[C@@]2(O1)[C@H]1CCCCN31 | inactive |  |
| COc1ccc(OC)c(C(c2c(O)c3ccccc3oc2=O)c2c(C)n(C)n(-c3ccccc3)c2=O)c1 (stereo not drawn) |  | inactive: -12.5% |
| CC[C@]1(O)CC(O[C@@H]2CC(N(C)C)C(O)C(C)O2)c2c(cc3c(c2O)C(=O)c2c(O)cccc2C3=O)C1C(=O)OC (stereo partly drawn) | active: 8.91 µM |  |
| CC(C(=O)O)c1ccc(-c2ccccc2)c(F)c1 (stereo not drawn) | inactive |  |
| Cc1cc(C)cc(N2C(=O)NC(=O)/C(=C\c3cccn3-c3ccc(Cl)cc3)C2=O)c1 |  | inactive: -3.1% |
| CCCC/C(C)=C/[C@@H](NP(=O)(c1ccccc1)c1ccccc1)c1ccccc1 |  | inactive: 7.7% |

| SMILES | Potency | activity, negative = inhibition |
| --- | --- | --- |
| Oc1ccc2c3c1O[C@H]1c4[nH]c5c(c4C[C@@]4(O)[C@@H](C2)N(CC2CC2)CC[C@]314)C[C@@]1(O)[C@H]2Cc3ccc(O)c4c3[C@@]1(CCN2CC1CC1)[C@H]5O4 |  | inactive: -18% |
| COc1ccc2[nH]cc(CCN)c2c1 | inactive |  |
| CN1CC[C@@]23CCCCC2C1Cc1ccc(O)cc13 (stereo partly drawn) |  | inactive: -14.2% |
| CC(=O)[C@H]1CC[C@H]2[C@@H]3CCC4=CC(=O)CC[C@]4(C)[C@H]3CC[C@]12C | inactive |  |
| CN1CCN(C(=O)O[C@@H]2c3nccnc3C(=O)N2c2ccc(Cl)cn2)CC1 |  | inactive: -2.58% |
| Cc1o[nH]c(=O)c1C[C@@H](N)C(=O)O |  | inactive: -9.37% |
| C=C[C@H]1CN2CCC1C[C@@H]2C(O)c1ccnc2ccccc12 (stereo partly drawn) |  | inactive: 3.85% |
| COc1ccc(Cc2nccc3cc(OC)c(OC)cc23)cc1OC | inactive |  |
| O=C1CSC(c2ccccc2Cl)c2cc(Cl)ccc2N1 (stereo not drawn) |  | inactive: -11.4% |
| C=C(C)CN1CC[C@@]23c4c5ccc(O)c4O[C@H]2c2[nH]c4ccccc4c2C[C@]3(O)[C@@H]1C5 |  | inactive: -2.32% |
| CCOC(=O)c1cc2c(cn1)[nH]c1ccccc12 | inactive |  |
| CCCN(CCC)C1CCc2ccc(O)cc2C1 (stereo not drawn) |  | inactive: 1.41% |
| O=C(O)CC1OCC=C2CN3CCC45C6=CC(=O)C(=O)C([N+](=O)[O-])=C6NC4C1C2CC35 (stereo not drawn) | active: 7.08 µM |  |
| CN1CCCC1c1cccnc1 (stereo not drawn) |  | inactive: -1.01% |
| CC(C)N1C(=O)/C(=C/C=C/c2ccco2)C(=O)N(Cc2ccco2)C1=O | active: 28.2 µM |  |
| Nc1nc2ccc(Cl)cc2c2nc(-c3ccco3)nn12 | inactive |  |
| CN1CCC[C@@H]1c1cccnc1 |  | inactive: -5.76% |
| CN(C(=O)Cc1ccc(Cl)c(Cl)c1)C(CN1CCCC1)c1cccc(OCC(=O)O)c1 (stereo not drawn) |  | inactive: -1.02% |
| COc1ccc(N=Nc2c(O)[nH]c(=S)[nH]c2=O)cc1 | active: 2.82 µM |  |
| CN1CCN(C(=O)OC2c3nccnc3C(=O)N2c2ccc(Cl)cn2)CC1 (stereo not drawn) | inactive |  |
| NS(=O)(=O)c1cc(C2(O)NC(=O)c3ccccc32)ccc1Cl (stereo not drawn) |  | inactive: -7.32% |

| SMILES | Potency | activity, negative = inhibition |
| --- | --- | --- |
| CC12CCC(=O)C=C1CCC1C2CCC2(C)C(O)CCC12 (stereo not drawn) |  | inactive: -2.19% |
| NCc1cc(=O)[nH]o1 | inactive |  |
| C[C@H](CCC(=O)O)[C@H]1CC[C@@H]2[C@H]3CC[C@H]4C[C@H](O)CC[C@]4(C)[C@@H]3CC[C@@]21C | inactive |  |
| COc1cc(CNC(=O)CCCC/C=C\C(C)C)ccc1O | inactive |  |
| CC(=O)C1=C(O)[C@@H]2[C@@H]3c4c[nH]c5cccc(c45)C[C@@H]3C(C)(C)N2C1=O |  | inactive: -14.4% |
| CC[C@H]1CN2CCc3cc(OC)c(OC)cc3[C@@H]2C[C@@H]1C[C@H]1NCCc2cc(OC)c(OC)cc21 | inactive |  |
| CNC(C)C(O)c1ccccc1 (stereo not drawn) |  | inactive: 1.68% |
| O=C1OC(c2cc(I)c(O)c(I)c2)(c2cc(I)c(O)c(I)c2)c2ccccc21 | active: 12.6 µM |  |
| C=CCN1C(=O)/C(=C/c2ccc(N3CCOCC3)o2)C(=O)NC1=S |  | inactive: 0.0651% |
| CN1CC[C@@]23CCCC[C@@H]2[C@@H]1Cc1ccc(O)cc13 |  | inactive: 3.71% |
| O=C1NC(=O)N(Cc2ccccc2)C(=O)/C1=C\N1CCCc2ccccc21 |  | inactive: -0.174% |
| CCC(COC(=O)c1cc(OC)c(OC)c(OC)c1)(c1ccccc1)N(C)C (stereo not drawn) |  | inactive: -0.299% |
| Cc1o[nH]c(=O)c1CC(N)C(=O)O (stereo not drawn) |  | inactive: -3.84% |
| C[C@]12CC[C@@H]3c4ccc(O)c(O)c4CC[C@H]3[C@@H]1CC[C@@H]2O | active: 14.1 µM |  |
| CCC(CO)NC(=O)C1C=C2c3cccc4[nH]cc(c34)CC2N(C)C1 (stereo not drawn) | inactive |  |
| COC1=C[C@]23CCCN2CCc2cc4c(cc2[C@@H]3[C@@H]1O)OCO4 |  | inactive: 0.96% |
| C=CC1CN2CCC1CC2C(O)c1ccnc2ccccc12 (stereo not drawn) |  | inactive: 4.68% |
| CCCCC/C=C\C/C=C\C/C=C\C/C=C\CCCC(=O)O | inactive |  |
| O=c1[nH]c2ccccc2n1C1CCN(CCCC(c2ccc(F)cc2)c2ccc(F)cc2)CC1 | inactive |  |
| CN[C@H](C)[C@H](O)c1ccccc1 |  | inactive: -9.08% |
| COc1ccc2c(c1)CCC1C2CC[C@@]2(C)C1CC[C@@H]2NCCCCCCN1C(=O)C=CC1=O (stereo partly drawn) |  | inactive: -12.6% |
